Assay [1] has as its target T1, ecdTDR mutant with Y234, F279, F281, R421 and R423 replaced by alanine (Arabidopsis thaliana) (UniProt Q9FII5).
T1 sequence: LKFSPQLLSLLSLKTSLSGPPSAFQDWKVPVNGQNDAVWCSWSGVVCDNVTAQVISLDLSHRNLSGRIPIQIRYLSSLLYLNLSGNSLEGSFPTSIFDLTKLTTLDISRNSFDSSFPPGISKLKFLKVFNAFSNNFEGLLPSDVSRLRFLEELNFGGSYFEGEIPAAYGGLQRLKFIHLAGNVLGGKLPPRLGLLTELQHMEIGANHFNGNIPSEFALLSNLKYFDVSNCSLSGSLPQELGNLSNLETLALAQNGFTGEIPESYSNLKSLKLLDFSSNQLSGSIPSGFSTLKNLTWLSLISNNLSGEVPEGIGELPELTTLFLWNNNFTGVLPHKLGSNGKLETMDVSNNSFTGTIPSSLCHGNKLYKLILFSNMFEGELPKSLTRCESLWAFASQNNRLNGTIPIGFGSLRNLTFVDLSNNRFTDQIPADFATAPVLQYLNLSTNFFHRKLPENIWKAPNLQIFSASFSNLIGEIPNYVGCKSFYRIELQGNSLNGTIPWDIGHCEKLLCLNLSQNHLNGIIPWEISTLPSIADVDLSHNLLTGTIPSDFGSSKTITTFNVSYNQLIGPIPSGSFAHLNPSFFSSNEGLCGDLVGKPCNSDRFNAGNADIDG
The assay can be described thus: condition: 0.5–1 mM peptide titrated into 10–40 μM ecdTDR; ITC; 0.5–1 mM peptide titrated into 10–40 μM ecdTDR; 25°C; 10 mM sodium citrate, 100 mM NaCl, pH 5.5; fitted to one set of binding sites; MicroCal Auto-iTC200; both purified.

Assay [2] deals with T2, TDR-S305A/W353A/R421A/R423A quadruple mutant (ecdTDR) (Arabidopsis thaliana) (UniProt Q9FII5).
T2 sequence: T1 sequence with A205Y, A250F, A252F, S276A, W324A
The assay is described as above.

For assay [3], the target named is T3, ecdTDR S377A mutant (Arabidopsis thaliana) (UniProt Q9FII5).
T3 sequence: T1 sequence with A205Y, A250F, A252F, S348A, A392R, A394R
Kind of assay: ITC; 0.5–1 mM peptide titrated into 10–40 μM ecdTDR; 25°C; 10 mM sodium citrate, 100 mM NaCl, pH 5.5; fitted to one set of binding sites; MicroCal Auto-iTC200; both purified. Background: Isothermal titration calorimetry measures the heat released or taken up as one component is titrated into another.

Assay [4] has as its target T4, ecdTDR I399A mutant (Arabidopsis thaliana) (UniProt Q9FII5).
T4 sequence: T1 sequence with A205Y, A250F, A252F, I370A, A392R, A394R
The description is as above.

The target of assay [5] is T5, ecdTDR K397A mutant (Arabidopsis thaliana) (UniProt Q9FII5).
T5 sequence: T1 sequence with A205Y, A250F, A252F, K368A, A392R, A394R
Described as above.

Numbering of substitutions follows the chain as printed. These are yes or no findings as the source states them, for the method shown. Some results given as binding are weak or reduced against the parent protein; the word gives no strength.

With HEVPSGPNPISN (hydroxyproline at 4 and 7) [Tracheary Element Differentiation Inhibitory Factor (TDIF) peptide], the binding result in assay [1] is given as “no binding”; in assay [2], “no binding”; in assay [3], “binds”; in assay [4] it was “binds”; in assay [5], “binds”.
